Reference: PubChem BioAssay AID686979 (National Center for Advancing Translational Sciences (NCATS), 2013)
In all, about 420,000 compounds went through this assay and about 50,000 (12%) were called active. This list was built around the results that the source calls inconclusive (neither active nor inactive); the mix of calls is not that of the screen. Calls come from the whole dose curve; as a rule, active = well fitted inhibition curve with a large enough effect; inconclusive = small, poorly fitted or top-dose-only effect; inactive = flat fitted curve, though single readings scatter. Potencies of inconclusive entries are left out as doubtful fits.

Experiment: qHTS for Inhibitors of human tyrosyl-DNA phosphodiesterase 1 (TDP1): qHTS in cells in presence of CPT; note: nearly all actives have a fitted effect of over 55% in size
Conditions: chicken DT40 Tdp1-/-;hTDP1 cells + 20 nM CPT, ATP luminescence, 48 h; activity change, negative = growth inhibition: at 46.2 µM (top of the series)
How it was run: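 Chicken DT40 Tdp1-/- cells stably complemented with human TDP1 were seeded at 400 cells/well in medium containing 20 nM camptothecin, exposed to pin-transferred compounds, and grown at 37 °C for at least 48 hr. Viability was read as ATP luminescence.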
% is set by controls: 0 for no effect and ±100 for the full control effect; potency is the fitted concentration of half-maximal effect; tags give direction and shape of the fitted curve.

| Structure (SMILES) | Potency | activity change, negative = growth inhibition |
| --- | --- | --- |
| Cc1ccc(NC(=S)N/N=C/c2c(C)[nH]c3ccccc23)cc1 | inconclusive [inhibitor, single point] |  |
| Cn1nccc1-c1coc2c(C(=O)NCc3ccccc3)cccc12 | inconclusive [inhibitor, single point] |  |
| S=C(Nc1ccc(Br)cc1)N1CCn2cccc2C1c1cccnc1 (stereo not drawn) | inconclusive [inhibitor, single point] |  |
| COc1cc2c(cc1NC(=O)CCCCCN1C(=O)CCC1=O)oc1ccccc12 | inconclusive [inhibitor, single point] |  |
| CC(C)Cn1nc(C(=O)Nc2nnc(C3CC3)s2)c2ccccc2c1=O | inconclusive [inhibitor, single point] |  |
| CC(CCc1ccccc1)NS(=O)(=O)c1ccc(Cl)c(C(=O)O)c1 (stereo not drawn) | inconclusive [inhibitor, single point] |  |
| Oc1c(Br)cc(Br)cc1C=Nc1cccc2ncccc12 | inconclusive [inhibitor, single point] |  |
| COc1cc([C@@H]2[C@H]3CNCC=C3C(C#N)=C(N)C2(C#N)C#N)ccc1OC(C)C | active: 9.2 µM |  |
| Cc1cccc(NC(=O)CCS(=O)(=O)c2cccc3nonc23)c1C | inconclusive [inhibitor, partial curve] |  |
| Cc1ccc(S(=O)(=O)N2CCOCC2)cc1C(=O)Nc1ccc(N2CCCCCC2)cc1 | active: 4.61 µM |  |
| COc1cccc(C(C)(O)c2nc(-c3ccc(OC)nc3)cs2)c1 (stereo not drawn) | inconclusive [inhibitor, single point] |  |
| COc1cccc(Nc2ncc3nc(C)c(=O)n(Cc4cccs4)c3n2)c1 |  | inactive: -3.82% |
| COc1cc(CNc2nc(C)c(-c3ccn(C4Cc5ccccc5C4)n3)s2)cc2c1OCO2 | inconclusive [inhibitor, single point] |  |
| COC(=O)c1c(C(=O)OC)c2c(-c3ccccc3)cc3cccc1n32 | inconclusive [inhibitor, single point] |  |
| CC1(C(=O)NC2CCCCCCC2)CCC(=O)N1Cc1cccnc1 (stereo not drawn) |  | inactive: -6.58% |
| Cc1ccc(-c2nnc(NC(=O)c3ccc([N+](=O)[O-])o3)o2)c(C)c1 | active: 16.4 µM |  |
| CCCCNC(=S)NNC(=O)c1csc(C)c1C | inconclusive [inhibitor, single point] |  |
| COc1ccc(C(=O)CC2SC(N)=NC2=O)cc1 (stereo not drawn) | inconclusive [inhibitor, partial curve, poor fit] |  |
| Cn1cc(C(N)=O)c2ccccc21 |  | inactive: 18.3% |
| CCc1nc2ccccc2c(C(=O)OCC(=O)N(CCOC)c2c(N)n(Cc3ccccc3)c(=O)[nH]c2=O)c1C | inconclusive [inhibitor, partial curve, poor fit] |  |
| CC(C)[C@@H]1O[C@H](CCc2ccccc2)CC2=C1C(=O)OC(C)(C)O2 | active: 14.6 µM |  |
| CN(CC(=O)Nc1ccccc1Br)C(=O)c1ccccc1OCc1ccc(Cl)cc1 | inconclusive [inhibitor, single point] |  |
| CCOC(=O)c1ccc2c(c1)N(CC#N)C(=O)C(C)(C)O2 | inconclusive [inhibitor, single point] |  |
| CC(=O)NC1=CC(=C[N+](=O)[O-])C=C1O | inconclusive [inhibitor, partial curve] |  |
| O=C(CCCn1c(=O)[nH]c2ccc(Br)cc2c1=O)N1CCN(c2cccc(Cl)c2)CC1 | active: 14.6 µM |  |

| Structure (SMILES) | Potency | activity change, negative = growth inhibition |
| --- | --- | --- |
| Nc1nc(SCc2ccccc2)ns1 |  | inactive: 1.63% |
| COc1cc(OC)c2c(-c3ccccc3)cc(=O)oc2c1C(CCN1CCCC1)c1ccc2c(c1)OCO2 (stereo not drawn) | inconclusive [inhibitor, single point] |  |
| COc1cc(NC(=O)c2ccccc2F)ccc1NC(=O)c1cc2ccccc2o1 | inconclusive [inhibitor, single point] |  |
| O=C(CCNC(=O)c1ccc(Cl)cc1)Nc1c(F)c(F)cc(F)c1F |  | inactive: -7.62% |
| OCC(O)C(O)C(O)CO (stereo not drawn) |  | inactive: -9.85% |
| CN(Cc1ccccc1)S(=O)(=O)c1ccc(NC(=O)c2ccccc2C(=O)O)cc1 |  | inactive: 5.76% |
| CCN(CC)S(=O)(=O)c1ccc(Cl)c(NC(=O)c2ccc(C#N)cc2)c1 | inconclusive [inhibitor, single point] |  |
| CCOc1ccc(-c2cn3c(n2)sc2cc(C(=O)NCCCN4CCCCC4)ccc23)cc1 | active: 1.64 µM |  |
| O=C(CCNS(=O)(=O)c1ccc(Br)cc1)NCc1ccc(F)cc1 | inconclusive [inhibitor, single point] |  |
| CN(C)C(CNC(=O)c1cccc(S(=O)(=O)N2CC3(C)CC2CC(C)(C)C3)c1)c1ccco1 (stereo not drawn) | inconclusive [inhibitor, single point] |  |
| CC1(C)CC(=O)C=C(c2ccc(COC(=O)/C=C/c3ccccc3)cc2)C1=O | inconclusive [inhibitor, single point] |  |
| CCc1ccc(NC(=O)Cn2nc(C(F)(F)F)c3c2CCCC3)cc1 | inconclusive [inhibitor, single point] |  |
| COC(=O)c1csc2c(C(F)(F)F)cc(N3CCN(C(=O)Nc4ccccc4)CC3)nc12 | inconclusive [inhibitor, single point] |  |
| CCOC(=O)/C(=C\c1ccc(N2CCC(c3ccccc3)=N2)cc1)C(C)=O | inconclusive [inhibitor, partial curve, poor fit] |  |
| COc1cc(-c2cc3nc(C)c(C)c(=O)n3[nH]2)cc(OC)c1OC |  | inactive: -9.02% |
| COc1cc(NC(=O)c2ccc(-c3nc(CSc4ccccc4)c(C)o3)cc2)cc(OC)c1 | active: 18.4 µM |  |
| Cc1noc(C)c1COc1ccccc1C(=O)N(C)Cc1ccc(C(C)(C)C)cc1 | active: 7.31 µM |  |
| CCOC(=O)Cn1nc(/C=C/c2ccc(C)cc2)ccc1=O | inconclusive [inhibitor, single point] |  |
| COc1ccc(N(CC(C)C)S(=O)(=O)c2nnc(NC(=O)c3ccco3)s2)cc1 | inconclusive [inhibitor, single point] |  |
| CCOC(=O)N1CCN(Cc2nc3cc([N+](=O)[O-])ccc3n2CC)CC1 | inconclusive [inhibitor, single point] |  |
| Cc1[nH]c2ccccc2c1/C=C/C(=O)c1ccccc1 | inconclusive [inhibitor, single point] |  |
| C[C@@H]1CN([C@H](C)CO)S(=O)(=O)c2ccc(C#CC3CCCCC3)cc2O[C@H]1CN(C)C(=O)Cc1ccncc1 | inconclusive [inhibitor, single point] |  |
| Cc1ccc(S(=O)(=O)N2CCC(NC(=O)C3CCCCC3)CC2)cc1 |  | inactive: 16.4% |
| O=C(CCc1nc2ccccc2s1)NC1CCOC1=O (stereo not drawn) |  | inactive: -4.3% |
| CCOc1cc(S(=O)(=O)n2nc(C)cc2C)ccc1Br |  | inactive: 11.2% |

| Structure (SMILES) | Potency | activity change, negative = growth inhibition |
| --- | --- | --- |
| O=C1NCCNC(=O)c2ccccc2OCCOc2ccccc21 | inconclusive [inhibitor, single point] |  |
| O=C(CN1C(=O)c2ccc([N+](=O)[O-])cc2C1=O)NCCC1=CCCCC1 |  | inactive: 14.5% |
| O=C1CN(C(=O)CSc2nnnn2C2CC2)c2ccccc2N1 |  | inactive: -1.1% |
| COc1ccccc1NS(=O)(=O)c1cc(NC(=O)c2ccncc2)ccc1N1CCCC1 | inconclusive [inhibitor, single point] |  |
| Cc1cc(N2CCN(C(=O)c3ccco3)CC2)n2nc(-c3cccc(F)c3)cc2n1 | inconclusive [inhibitor, single point] |  |
| Cc1cccc(Cn2c(N3CCCCC3C)nc3c2c(=O)[nH]c(=O)n3C)c1 (stereo not drawn) | inconclusive [inhibitor, partial curve, poor fit] |  |
| CCc1ccc(Nc2nc(C)cc(C)n2)cc1 | inconclusive [inhibitor, single point] |  |
| CC(Sc1ccsc1[N+](=O)[O-])C(=O)N1CCN(c2ccccn2)CC1 (stereo not drawn) |  | inactive: -23.6% |
| C=C1CCC(=O)C(C)CCC2C1CC2(C)C (stereo not drawn) |  | inactive: 3.41% |
| c1ccc2c(c1)oc1c(-c3cccc4nccn34)cccc12 | active: 13 µM |  |
| CCC(=O)N1CCN(c2ccccc2NC(=O)COc2ccccc2Cl)CC1 | active: 23.1 µM |  |
| CCc1noc(C)c1C(=O)Nc1nc(-c2ccc(Cl)cc2Cl)cs1 | active: 18.4 µM |  |
| COc1ccc(-n2c(COc3cccc4cccnc34)nnc2SCC(=O)O)cc1 |  | inactive: -6.59% |
| CCCc1nc2ccccc2c(C(=O)OCC(=O)NCc2ccc3c(c2)OCO3)c1CC | inconclusive [inhibitor, single point] |  |
| CN1CCCN(C(=O)C2CCCCC2)CC1 |  | inactive: 10% |
| COc1ccc(C2C=C(c3ccccc3)Nc3nnnn32)cc1 (stereo not drawn) |  | inactive: -18.4% |
| COc1cccc(/C=N/NC(=O)c2cccc([N+](=O)[O-])c2)c1OS(=O)(=O)c1ccccc1 | inconclusive [inhibitor, single point] |  |
| COc1cc(C2=NOC(C(=O)Nc3ccc4c(c3)OCO4)C2)cc(OC)c1OC (stereo not drawn) | inconclusive [inhibitor, single point] |  |
| O=C(Nc1ccnc(-c2cccnc2)n1)c1cccc(Cl)c1Cl | active: 20.6 µM |  |
| Cc1cc(CSc2ccc(Cl)cc2)ccc1N |  | inactive: 1.96% |
| CN(C)c1ncnc2ccc(-c3cccc(NS(C)(=O)=O)c3)cc12 | active: 20.6 µM |  |
| COc1ccc(N(CC(=O)Nc2ccc(C)c(F)c2)S(=O)(=O)c2c(C)noc2C)cc1 | inconclusive [inhibitor, single point] |  |
| O=C1C(Cc2cccc([N+](=O)[O-])c2)SC(=Nc2ccccc2)N1c1ccccc1 (stereo not drawn) |  | inactive: -14.4% |
